Assay results published in the RNAGym collection of RNA variant scans (doi:10.7554/elife.90254).
Read counts are not given, so values of variants with three or more changes are uncertain.

B1: LINE1-mini (parent)
chain: GGCAGAGCUCAACACAGCGUGGCAAAGUGGCUGUGGCUAGACUGCC

Variants of: B1
Test: self-cleavage, relative activity (ratio to wild type); higher = more cleavage; in vitro, sequencing; the parent is a self-cleaving ribozyme

Variant	self-cleavage
GGCAGAGCUCAACACAGCGUGGCAAAGUGGCUGUGGCAAGACUACG	0.07
GGCAGAGCUCAACACAGCGUGGCAAAGUGGCUGUGGCUAGCCUAGA	0.05
GGCAGAGCUCAACACAGCGUGGCAAAGUGGCUGUGGCUAUACGGGC	0.02
GGCAGAGCUCAACACAGCGUGGCAAAGUGGCUGUGGCCAGACCGAC	0.07
GGCAGAGCUCAACACAGCGUGGCAAAGUGGCUGUGGCCUUACUGCC	0.24
GGCAGAGCUCAACACAGCGUGGCAAAGUGGCUGUGGCUUGACUGUU	0.16
GGCAGAGCUCAACACAGCGUGGCAAAGUGGCUGUGGUUUGACUGUC	0.05
GGCAGAGCUCAACACAGCGUGGCAAAGUGGCUGUGUGUAGACUGCG	0
GGCAGAGCUCAACACAGCGUGGCAAAGUGGCUGUGGCGAGUCUGCU	0.04
GGCAGAGCUCAACACAGCGUGGCAAAGUGGCUGUGGCCAAUCUGCC	0.4
GGCAGAGCUCAACACAGCGUGGCAAAGUGGCUGUGGCUAUGCUGCU	0.15
GGCAGAGCUCAACACAGCGUGGCAAAGUGGCUGUGGCUAUGCUGCA	0.02
GGCAGAGCUCAACACAGCGUGGCAAAGUGGCUGUGGCGAGACGGCA	0.04
GGCAGAGCUCAACACAGCGUGGCAAAGUGGCUGUGGUCAAACUGCA	0.02
GGCAGAGCUCAACACAGCGUGGCAAAGUGGCUGUGGCUUGAGCGCC	0.01
GGCAGAGCUCAACACAGCGUGGCAAAGUGGCUGUGGCUAUACUACA	0.05
GGCAGAGCUCAACACAGCGUGGCAAAGUGGCUGUGGCUAAAAUGAG	0.06
GGCAGAGCUCAACACAGCGUGGCAAAGUGGCUGUGGCUAGUGUACC	0.3
GGCAGAGCUCAACACAGCGUGGCAAAGUGGCUGUGGCUCCACUGCA	0.07
GGCAGAGCUCAACACAGCGUGGCAAAGUGGCUGUGGUUGGACUGCU	0
GGCAGAGCUCAACACAGCGUGGCAAAGUGGCUGUGGUUACACUGUC	0.08
GGCAGAGCUCAACACAGCGUGGCAAAGUGGCUGUGGCGAUACUGUC	0.06
GGCAGAGCUCAACACAGCGUGGCAAAGUGGCUGUGGCUACGCUACC	0.03
GGCAGAGCUCAACACAGCGUGGCAAAGUGGCUGUGGCUCUACUUCC	0.03
GGCAGAGCUCAACACAGCGUGGCAAAGUGGCUGUGUCCAUACUGCC	0.12
GGCAGAGCUCAACACAGCGUGGCAAAGUGGCUGUGGCUAAUCUCCC	0.09

Variant	self-cleavage
GGCAGAGCUCAACACAGCGUGGCAAAGUGGCUGUGUGUAGACUUCC	0.01
GGCAGAGCUCAACACAGCGUGGCAAAGUGGCUGUGGAUAGGCUGUC	0.03
GGCAGAGCUCAACACAGCGUGGCAAAGUGGCUGUGGCUAGACUCGG	0.05
GGCAGAGCUCAACACAGCGUGGCAAAGUGGCUGUGGCUCCAAGGCC	0.03
GGCAGAGCUCAACACAGCGUGGCAAAGUGGCUGUGGCCAGUCGGCC	0.08
GGCAGAGCUCAACACAGCGUGGCAAAGUGGCUGUGGCUGUAGUGCC	0.29
GGCAGAGCUCAACACAGCGUGGCAAAGUGGCUGUGUCUAGACGUCC	1
GGCAGAGCUCAACACAGCGUGGCAAAGUGGCUGUGGCUAGACUUAA	0.07
GGCAGAGCUCAACACAGCGUGGCAAAGUGGCUGUGGGUCGACUGUC	0
GGCAGAGCUCAACACAGCGUGGCAAAGUGGCUGUGUGUGGACUGCC	0.07
GGCAGAGCUCAACACAGCGUGGCAAAGUGGCUGUGGCUAAAAUGCA	0.09
GGCAGAGCUCAACACAGCGUGGCAAAGUGGCUGUGGCUAGUCAUCC	0.15
GGCAGAGCUCAACACAGCGUGGCAAAGUGGCUGUGGUUUGACUGCU	0
GGCAGAGCUCAACACAGCGUGGCAAAGUGGCUGUGGCUAGCCUUUC	0.06
GGCAGAGCUCAACACAGCGUGGCAAAGUGGCUGUGGAUUGACUGUC	0.02
GGCAGAGCUCAACACAGCGUGGCAAAGUGGCUGUGGCAAGACAGUC	0.05
GGCAGAGCUCAACACAGCGUGGCAAAGUGGCUGUGGCAAUAACGCC	0.22
GGCAGAGCUCAACACAGCGUGGCAAAGUGGCUGUGGCCAGUCUGCU	0.15
GGCAGAGCUCAACACAGCGUGGCAAAGUGGCUGUGGGAAGAUUGCC	0.04
GGCAGAGCUCAACACAGCGUGGCAAAGUGGCUGUGUCUAGAAUGCU	0.1
GGCAGAGCUCAACACAGCGUGGCAAAGUGGCUGUGGCAAGAGUAAC	0
GGCAGAGCUCAACACAGCGUGGCAAAGUGGCUGUGGCUAGGCCCCC	0.01
GGCAGAGCUCAACACAGCGUGGCAAAGUGGCUGUGUCGAGACUGCU	0.02
GGCAGAGCUCAACACAGCGUGGCAAAGUGGCUGUGGUUAGGCUGCU	0.03
GGCAGAGCUCAACACAGCGUGGCAAAGUGGCUGUGGCUUAUCUGCC	0.62
GGCAGAGCUCAACACAGCGUGGCAAAGUGGCUGUGGCUAUACUCCA	0.09

Variant	self-cleavage
GGCAGAGCUCAACACAGCGUGGCAAAGUGGCUGUGGCUAGAGAGAC	0.02
GGCAGAGCUCAACACAGCGUGGCAAAGUGGCUGUGGAUAGCCUGCA	0.01
GGCAGAGCUCAACACAGCGUGGCAAAGUGGCUGUGGGUAGAGUUCC	0.01
GGCAGAGCUCAACACAGCGUGGCAAAGUGGCUGUGGCUGAACUCCU	0.01
GGCAGAGCUCAACACAGCGUGGCAAAGUGGCUGUGGUUAGACGCCC	0.02
GGCAGAGCUCAACACAGCGUGGCAAAGUGGCUGUGGGAAGUCUGCC	0.02
GGCAGAGCUCAACACAGCGUGGCAAAGUGGCUGUGGCUCGACUGAA	0.14
GGCAGAGCUCAACACAGCGUGGCAAAGUGGCUGUGGAUAGCCUGUC	0.01
GGCAGAGCUCAACACAGCGUGGCAAAGUGGCUGUGGCUAGUAAGCC	0.03
GGCAGAGCUCAACACAGCGUGGCAAAGUGGCUGUGGCUACACUUAC	0
GGCAGAGCUCAACACAGCGUGGCAAAGUGGCUGUGGAUGGACUGUC	0.04
GGCAGAGCUCAACACAGCGUGGCAAAGUGGCUGUGGCUGGUCCGCA	0.01
GGCAGAGCUCAACACAGCGUGGCAAAGUGGCUGUGGCGAGCCUGGC	0.02
GGCAGAGCUCAACACAGCGUGGCAAAGUGGCUGUGGCUUCACUGGC	0.06
GGCAGAGCUCAACACAGCGUGGCAAAGUGGCUGUGGCUAGAUUGGU	0.06
GGCAGAGCUCAACACAGCGUGGCAAAGUGGCUGUGUCUAAACUUCC	0.16
GGCAGAGCUCAACACAGCGUGGCAAAGUGGCUGUGGCUAAACUACG	0.03
GGCAGAGCUCAACACAGCGUGGCAAAGUGGCUGUGGUGAUACUGCC	0
GGCAGAGCUCAACACAGCGUGGCAAAGUGGCUGUGGCACCACUGCC	0.05
GGCAGAGCUCAACACAGCGUGGCAAAGUGGCUGUGGCUAGAUUGAA	0.05
GGCAGAGCUCAACACAGCGUGGCAAAGUGGCUGUGGCAAGUCUGCG	0.25
GGCAGAGCUCAACACAGCGUGGCAAAGUGGCUGUGGCCAGACUAUC	0.06
GGCAGAGCUCAACACAGCGUGGCAAAGUGGCUGUGGCUUGUCUGGC	0.36
GGCAGAGCUCAACACAGCGUGGCAAAGUGGCUGUGGCGAGCCUACA	0.04
GGCAGAGCUCAACACAGCGUGGCAAAGUGGCUGUGGCUAGACAUCU	0.13
GGCAGAGCUCAACACAGCGUGGCAAAGUGGCUGUGGUUAGGCUGAC	0.11
